Laboratory results from article PMC4336329 (PLoS ONE, 2015).
About 2,200 (0.71%) of roughly 310,000 compounds showed an effect of 50% or more. Effects have a minus sign here. The list shows a part of the results.

What follows are compounds tested against human ether-à-go-go-related gene (hERG) potassium channel (human, UniProt Q12809) (assay: primary screen, population patch clamp on CHO cells stably expressing hERG).
Chain of human ether-à-go-go-related gene (hERG) potassium channel (Q12809 whole entry, looked up): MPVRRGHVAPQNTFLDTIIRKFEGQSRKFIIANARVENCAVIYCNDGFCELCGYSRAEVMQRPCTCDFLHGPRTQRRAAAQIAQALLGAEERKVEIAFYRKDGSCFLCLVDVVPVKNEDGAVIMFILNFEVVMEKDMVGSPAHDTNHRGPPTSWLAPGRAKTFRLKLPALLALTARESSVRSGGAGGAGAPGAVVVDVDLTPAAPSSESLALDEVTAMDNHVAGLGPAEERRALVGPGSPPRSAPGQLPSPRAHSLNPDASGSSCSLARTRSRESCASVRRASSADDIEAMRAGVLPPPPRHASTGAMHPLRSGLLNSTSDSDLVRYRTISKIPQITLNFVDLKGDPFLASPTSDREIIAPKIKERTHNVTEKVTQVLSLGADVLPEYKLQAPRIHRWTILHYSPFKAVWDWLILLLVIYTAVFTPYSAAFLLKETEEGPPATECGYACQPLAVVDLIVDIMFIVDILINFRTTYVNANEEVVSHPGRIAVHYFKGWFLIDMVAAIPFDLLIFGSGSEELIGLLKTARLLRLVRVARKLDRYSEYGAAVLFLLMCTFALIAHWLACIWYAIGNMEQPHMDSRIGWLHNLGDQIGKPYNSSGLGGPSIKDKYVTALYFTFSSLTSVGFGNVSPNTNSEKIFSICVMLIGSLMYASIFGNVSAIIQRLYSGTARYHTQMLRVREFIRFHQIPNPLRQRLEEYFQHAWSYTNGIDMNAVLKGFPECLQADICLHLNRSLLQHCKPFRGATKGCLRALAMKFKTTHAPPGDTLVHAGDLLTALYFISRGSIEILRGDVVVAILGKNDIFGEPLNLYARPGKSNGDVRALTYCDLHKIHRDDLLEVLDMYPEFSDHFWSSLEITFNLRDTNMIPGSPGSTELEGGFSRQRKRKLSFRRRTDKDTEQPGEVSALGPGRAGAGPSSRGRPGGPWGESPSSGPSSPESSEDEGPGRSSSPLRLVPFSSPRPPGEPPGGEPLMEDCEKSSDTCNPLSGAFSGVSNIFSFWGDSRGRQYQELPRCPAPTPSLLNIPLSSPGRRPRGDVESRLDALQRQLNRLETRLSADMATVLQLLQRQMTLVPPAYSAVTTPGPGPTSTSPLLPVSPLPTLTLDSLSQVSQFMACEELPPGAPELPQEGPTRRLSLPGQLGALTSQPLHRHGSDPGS
`COc1ccc(-c2cc(C(=O)N3CCC4(CC3)OCCO4)c3ccccc3n2)cc1` was tested, and the “hERG current change (%, negative = inhibition) at 1uM” value was 14.6%. In the case of `C[C@@H]1O[C@@H](OC[C@H]2O[C@@H](Oc3c(-c4ccc(O)c(O)c4)oc4cc(O)cc(O)c4c3=O)[C@H](O)[C@@H](O)[C@@H]2O)[C@H](O)[C@H](O)[C@H]1O`, the “hERG current change (%, negative = inhibition) at 1uM” value is reported as 22.1%. For `CN(C)NC(=O)C(NC(=O)c1ccc(N)cc1)C12CC3CC(CC(C3)C1)C2` (stereo not shown), the “hERG current change (%, negative = inhibition) at 1uM” value was 10.8%. `O=Cc1cccn1-c1sc2c(c1C(=O)O)CCCC2` was tested, and the “hERG current change (%, negative = inhibition) at 1uM” value was 6.66%. `Cc1ccc(N2CC(C(=O)NCc3n[nH]c(=O)c4ccccc34)CC2=O)cc1C` (stereo not shown) was tested, and the “hERG current change (%, negative = inhibition) at 1uM” value was 5.72%. With `COC(=O)c1cc(OC)c(OCc2cc(C(=O)OC)oc2C)c(OC)c1` the “hERG current change (%, negative = inhibition) at 1uM” value was 9.68%. For `COc1ccc(OCCSc2nc(-c3ccccc3)cc(=O)[nH]2)cc1`, the “hERG current change (%, negative = inhibition) at 1uM” value was 15.4%. `CC(=O)Nc1ccc(NCC(=O)c2ccccc2)cc1` was tested, and the “hERG current change (%, negative = inhibition) at 1uM” value was 17.7%. In the case of `C=CCn1c(SCC#N)nnc1-c1ccc2ncccc2c1`, the “hERG current change (%, negative = inhibition) at 1uM” value is reported as 8.7%. `Cc1c(CC(=O)N[C@@H](C)C(=O)O)c(=O)oc2cc3oc4c(c3cc12)CCCC4` was tested, and the “hERG current change (%, negative = inhibition) at 1uM” value was 18.7%. For `CCOc1ccccc1-n1c(C)cc(C=O)c1C`, the “hERG current change (%, negative = inhibition) at 1uM” value was 1.15%. `Cc1nnc(SCc2ccccc2F)n1NCc1cccs1` was tested, and the “hERG current change (%, negative = inhibition) at 1uM” value was 5.71%. In the case of `O=C(O/N=C1\CCS(=O)(=O)c2sccc21)c1ccccc1`, the “hERG current change (%, negative = inhibition) at 1uM” value is reported as 4.26%. With `Cc1ccc(C)c(-c2nnc(NC(=O)COc3ccccc3)o2)c1` the “hERG current change (%, negative = inhibition) at 1uM” value was 21.9%. In the case of `COc1cc(NC(=S)N2CCCC(CO)C2)c(OC)cc1Cl` (stereo not shown), the “hERG current change (%, negative = inhibition) at 1uM” value is reported as 8.11%. With `Oc1ccc(C2Nc3cccc4cccc(c34)N2)c(O)c1` the “hERG current change (%, negative = inhibition) at 1uM” value was 17.4%. `CCCn1c2ccccc2c2nnc(SC(CC)C(=O)Nc3cc(C)on3)nc21` (stereo not shown) was tested, and the “hERG current change (%, negative = inhibition) at 1uM” value was -0.818%. In the case of `COC(=O)c1cccc(NC(=O)CN2CCc3ccccc3C2)c1`, the “hERG current change (%, negative = inhibition) at 1uM” value is reported as 11.9%. In the case of `Fc1ccc(CN2CCN3CCCC3C2C2CCCCC2)cc1F` (stereo not shown), the “hERG current change (%, negative = inhibition) at 1uM” value is reported as 9.81%. With `COc1cc2c(cc1OC)C(=S)NC1(CCCC1)C2` the “hERG current change (%, negative = inhibition) at 1uM” value was 10.3%. For `COc1ccccc1N1CCN(Cc2ccc(Cl)cc2Cl)CC1`, the “hERG current change (%, negative = inhibition) at 1uM” value was -6.43%. With `COc1ccc(NC(=O)COC(=O)Cc2ccccc2[N+](=O)[O-])cc1OC` the “hERG current change (%, negative = inhibition) at 1uM” value was 18.8%. With `COc1ccc(OC(C)C(=O)Nc2cccc(OC)c2)cc1` (stereo not shown) the “hERG current change (%, negative = inhibition) at 1uM” value was 9.38%. With `CCOc1ccc(C(=O)CN2C(=O)NC3(CCCCCC3)C2=O)cc1` the “hERG current change (%, negative = inhibition) at 1uM” value was 9.88%. With `NC(=O)c1ccc(NC(=O)CSc2nnc(-c3ccc4c(c3)OCO4)o2)cc1` the “hERG current change (%, negative = inhibition) at 1uM” value was 8.8%.
